Measurements published in the supplement of paper PMC4166925.
± gives the standard deviation of the averaged measurements. Whole data set: some 33,000 sequences, median “E-score (dimensionless, -0.5 to 0.5)” near -0.049, cut for the highest 2% near 0.37. The list shows a part of the results.

Test system: T1, PmTbr T-box DNA-binding domain (GST fusion)
T1 sequence: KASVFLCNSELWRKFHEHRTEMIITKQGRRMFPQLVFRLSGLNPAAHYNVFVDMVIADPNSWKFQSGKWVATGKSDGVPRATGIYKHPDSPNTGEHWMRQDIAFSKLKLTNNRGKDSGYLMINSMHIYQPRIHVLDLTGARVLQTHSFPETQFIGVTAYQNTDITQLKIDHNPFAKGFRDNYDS
Assay: PBM E-score of 8-mer (E-score (dimensionless, -0.5 to 0.5)); Tbr is Tbrain of the sea star Patiria miniata (Pm) or the sea urchin Strongylocentrotus purpuratus (Sp); higher = stronger binding preference; most listed sequences are background and not binding sites
Conditions: the construct has about 5 more residues each side
Outline: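 Universal Agilent oligonucleotide arrays, made double-stranded by primer extension, were incubated with 200 nM GST-fused Tbr T-box DNA-binding domain in PBS (pH 7.5). The protein was expressed in BL21 E. coli at 20 °C and purified by glutathione affinity chromatography. After scanning and quantification, the Universal PBM Analysis Suite assigned an enrichment E-score to each ungapped 8-mer, averaged over duplicate arrays.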

| Sequence | PBM E-score of 8-mer |
| --- | --- |
| TAACGCAA | 0.13 ± 0.051 |
| GTGCCATA | 0.312 ± 0.038 |
| GATGATGC | 0.0614 ± 0.021 |
| GCTAAGCC | -0.15 ± 0.082 |
| GGATACTA | -0.177 ± 0.009 |
| ACACAGGC | 0.0712 ± 0.046 |
| GAACGTTA | -0.1664 ± 0.0012 |
| AAGAGTGG | 0.0969 ± 0.083 |
| GGAACCAA | -0.15 ± 0.051 |
| GATCCCCC | -0.194 ± 0.037 |
| GGTCTAGA | -0.0924 ± 0.012 |
| CATTACGG | 0.00889 ± 0.07 |
| GCGCATAC | -0.0655 ± 0.018 |
| CACGGTAA | -0.0651 ± 0.02 |
| CTCCTCAA | -0.204 ± 0.024 |
| CGCTAGCC | 0.0208 ± 0.035 |
| GTTCCCAA | -0.171 ± 0.054 |
| CCGATATA | -0.22 ± 0.089 |
| CTCCCCAA | -0.12 ± 0.0034 |
| AATTATTA | 0.0781 ± 0.037 |
| ATCTAAAG | -0.0721 ± 0.13 |
| CCGTTCAG | -0.125 ± 0.0045 |
| AGTTGCCG | 0.198 ± 0.034 |
| CTTAGGCC | -0.236 ± 0.042 |
| ACGTCTAA | -0.0591 ± 0.058 |

| Sequence | PBM E-score of 8-mer |
| --- | --- |
| CCTTTTCG | -0.0844 ± 0.11 |
| CGCAACAC | 0.356 ± 0.033 |
| GCGCAACC | 0.0116 ± 0.096 |
| GGCCAGAA | -0.0717 ± 0.046 |
| CAGACGAA | -0.175 ± 0.063 |
| CGCTTCGA | 0.0101 ± 0.081 |
| CGAGCAAA | -0.0522 ± 0.042 |
| AAACCGCG | 0.118 ± 0.05 |
| CCGAGATA | 0.0154 ± 0.0047 |
| ACTACTTA | -0.00428 ± 0.033 |
| TCCCGGGA | -0.0648 ± 0.018 |
| ACAACAAA | 0.126 ± 0.034 |
| CCTCGGCA | 0.142 ± 0.033 |
| CTCTGGAA | 0.0136 ± 0.06 |
| AAGCACCG | -0.0942 ± 0.069 |
| CACTGGAC | 0.000895 ± 0.02 |
| GCGCCTGA | 0.0755 ± 0.0086 |
| ATAGGGAT | -0.166 ± 0.038 |
| GTCACAAC | 0.319 ± 0.0069 |
| GCGAGGAC | 0.0922 ± 0.051 |
| CGACGGAA | -0.107 ± 0.056 |
| CTTGCTTC | -0.315 ± 0.0093 |
| AGTTCATA | -0.23 ± 0.0044 |
| AGAAATCA | -0.0217 ± 0.029 |
| CCCCTAGA | -0.178 ± 0.0024 |

| Sequence | PBM E-score of 8-mer |
| --- | --- |
| CCACACAC | 0.304 ± 0.011 |
| CTCCGGAC | -0.203 ± 0.042 |
| AACGCGCG | 0.2454 ± 0.0014 |
| ATGGAAAT | -0.169 ± 0.037 |
| GGCAGCGA | 0.126 ± 0.0052 |
| GGGATACA | -0.16 ± 0.018 |
| ACCGAGGC | -0.0231 ± 0.018 |
| GACGGTCA | 0.0599 ± 0.04 |
| GGTCTCGA | -0.177 ± 0.055 |
| CTACGCAA | -0.194 ± 0.097 |
| CCTAGCAG | -0.0314 ± 0.049 |
| GTTGGTTA | 0.0594 ± 0.025 |
| AGTCTTAT | -0.204 ± 0.01 |
| AGTTTACG | -0.0581 ± 0.0058 |
| CACCTGGG | 0.361 ± 0.029 |
| AGTGATGG | 0.202 ± 0.025 |
| AGCCACGA | 0.0169 ± 0.03 |
| CCATCGAC | -0.0162 ± 0.054 |
| ATGGTAAC | -0.0792 ± 0.013 |
| TAGAAAAA | -0.103 ± 0.027 |
| AACTATGA | -0.109 ± 0.012 |
| GAACGTCC | -0.211 ± 0.13 |
| AGGCCATA | -0.117 ± 0.039 |
| ACTTAGTG | 0.000245 ± 0.034 |
| AGGATAAC | 0.0317 ± 0.0068 |

| Sequence | PBM E-score of 8-mer |
| --- | --- |
| ATCGATAC | -0.00677 ± 0.013 |
| GCCACGTA | -0.033 ± 0.11 |
| CCCGCAGC | -0.0306 ± 0.016 |
| GGGAAATA | -0.189 ± 0.036 |
| CTATCTGC | -0.0595 ± 0.065 |
| GGCAGTTA | 0.0342 ± 0.0068 |
| CAACGGCA | -0.0419 ± 0.033 |
| GATCGCAA | 0.244 ± 0.013 |
| CGCGGTCC | 0.00125 ± 0.00074 |
| CATGCTTC | -0.194 ± 0.045 |
| AAATGAAC | -0.22 ± 0.033 |
| GACAGATA | 0.164 ± 0.043 |
| GTCATTAA | -0.0808 ± 0.13 |
| CAGCTACG | -0.0325 ± 0.0091 |
| CACGCTGA | 0.017 ± 0.027 |
| CAGCGCAG | -0.158 ± 0.035 |
| CAAGACCC | -0.0367 ± 0.0093 |
| AAGACTCG | 0.0824 ± 0.011 |
| CCGCGGCG | -0.0137 ± 0.033 |
| CCAGTGAA | -0.169 ± 0.068 |
| GACGCCTA | 0.288 ± 0.0027 |
| CGATTGTC | 0.00791 ± 0.025 |
| CAAAAGCC | -0.0578 ± 0.12 |
| CTGATCGA | -0.113 ± 0.011 |
| AATACAGC | -0.125 ± 0.023 |

| Sequence | PBM E-score of 8-mer |
| --- | --- |
| TCCCCAAA | -0.149 ± 0.13 |
| ACTTCATC | -0.0364 ± 0.0059 |
| GAAGGTAC | -0.214 ± 0.046 |
| AGGTCGTG | 0.0158 ± 0.083 |
| AGGCCACA | -0.017 ± 0.05 |
| AGGTAATA | -0.281 ± 0.016 |
| GTGGCCCA | -0.205 ± 0.02 |
| ATCCCTCG | 0.0153 ± 0.12 |
| GAGGCCAC | -0.11 ± 0.0055 |
| CGTGATAA | 0.251 ± 0.034 |
| AGTTCACC | -0.0448 ± 0.0017 |
| GTTTGGTA | 0.0874 ± 0.0073 |
| CCTCACAG | 0.127 ± 0.049 |
| ATTCTTCG | -0.0422 ± 0.078 |
| AAAGCCTT | -0.0617 ± 0.095 |
| CTGCATAA | -0.11 ± 0.064 |
| CAATGATA | -0.0259 ± 0.03 |
| ATTCGATG | -0.311 ± 0.021 |
| ATCGCTCA | -0.2 ± 0.026 |
| ATTTGAGC | -0.18 ± 0.017 |
| ACAGCCCA | -0.0835 ± 0.0019 |
| CATAGGTA | 0.0537 ± 0.043 |
| ATGACATA | -0.139 ± 0.032 |
| CGATGCAA | -0.16 ± 0.013 |
| CCGACCGG | 0.00967 ± 0.02 |

| Sequence | PBM E-score of 8-mer |
| --- | --- |
| AGTGTGCA | 0.253 ± 0.008 |
| CAAGACGA | -0.158 ± 0.014 |
| ACGTTGAT | -0.2 ± 0.013 |
| CTGGCGGC | -0.168 ± 0.018 |
| GTAGCGTA | -0.112 ± 0.06 |
| TCAATGGA | -0.0992 ± 0.0078 |
| ATACTTTG | -0.138 ± 0.041 |
| GGTCGTGA | 0.0269 ± 0.06 |
| GAGAACCC | -0.0803 ± 0.011 |
| AGATGCAG | -0.225 ± 0.03 |
| AATTATCT | 0.113 ± 0.077 |
| CTCTTATA | -0.107 ± 0.013 |
| CAGTGCAC | -0.00583 ± 0.034 |
| GACCCCAC | -0.0873 ± 0.063 |
| ACCTGACC | 0.00515 ± 0.051 |
| AAAAACAC | 0.313 ± 0.025 |
| AAATTGTG | 0.112 ± 0.013 |
| AAGGCTGA | 0.0132 ± 0.06 |
| AAGAACAC | 0.0781 ± 0.027 |
| CTGGTTTC | -0.041 ± 0.0045 |
| ACCGAACT | -0.127 ± 0.046 |
| AGCACAAC | 0.0533 ± 0.013 |
| CCGCGCAC | 0.12 ± 0.024 |
| AATCAAAA | -0.152 ± 0.036 |
| GAGGCAGA | 0.00581 ± 0.019 |

| Sequence | PBM E-score of 8-mer |
| --- | --- |
| CCCGCCGG | -0.195 ± 0.014 |
| CAATTAAC | 0.11 ± 0.054 |
| ACGTAGTC | -0.1965 ± 0.0019 |
| ACGCAGCC | -0.155 ± 0.031 |
| AAATTAGT | -0.152 ± 0.13 |
| AAAAGCCG | -0.00105 ± 0.076 |
| CCAGTGCC | -0.103 ± 0.0034 |
| ATTTTGCA | 0.208 ± 0.063 |
| AGCCGTAT | -0.0845 ± 0.061 |
| GACCGGCC | -0.161 ± 0.029 |
| CCTATAAA | -0.29 ± 0.0059 |
| CGGGAAAA | 0.102 ± 0.014 |
| GCCGGCGA | 0.119 ± 0.0044 |
| GACAACAA | 0.194 ± 0.046 |
| AGCGGAAG | -0.0179 ± 0.012 |
| AGAGATAT | 0.093 ± 0.016 |
| GAGTGCAC | -0.214 ± 0.037 |
| AATTTTCC | -0.0893 ± 0.04 |
| AGTGAAGA | 0.00749 ± 0.058 |
| GGGAGCCC | -0.25 ± 0.0022 |
| AACATTTA | -0.028 ± 0.082 |
| AGCCATGA | -0.156 ± 0.014 |
